Measurements from patent US20250381289A1 (Genmab, published 2025).

Columns and labels:
Assay in all cases: flow cytometry, EBC-1 cells (co-express EGFR and cMET; both arms contribute)
[1] = target: T1, cMET on EGFR and cMET co-expressed tumor cell lines (UniProt P08581)
T1 construct: whole, on cells

[2] = target: T1, cMET on EGFR and cMET co-expressed …; remark: listed apart in the source
[3] = target: T2, EGFR on EGFR and cMET co-expressed tumor cell lines (UniProt P00533)
T2 construct: whole, on cells

T1 sequence (P08581 25-1390 limits assumed): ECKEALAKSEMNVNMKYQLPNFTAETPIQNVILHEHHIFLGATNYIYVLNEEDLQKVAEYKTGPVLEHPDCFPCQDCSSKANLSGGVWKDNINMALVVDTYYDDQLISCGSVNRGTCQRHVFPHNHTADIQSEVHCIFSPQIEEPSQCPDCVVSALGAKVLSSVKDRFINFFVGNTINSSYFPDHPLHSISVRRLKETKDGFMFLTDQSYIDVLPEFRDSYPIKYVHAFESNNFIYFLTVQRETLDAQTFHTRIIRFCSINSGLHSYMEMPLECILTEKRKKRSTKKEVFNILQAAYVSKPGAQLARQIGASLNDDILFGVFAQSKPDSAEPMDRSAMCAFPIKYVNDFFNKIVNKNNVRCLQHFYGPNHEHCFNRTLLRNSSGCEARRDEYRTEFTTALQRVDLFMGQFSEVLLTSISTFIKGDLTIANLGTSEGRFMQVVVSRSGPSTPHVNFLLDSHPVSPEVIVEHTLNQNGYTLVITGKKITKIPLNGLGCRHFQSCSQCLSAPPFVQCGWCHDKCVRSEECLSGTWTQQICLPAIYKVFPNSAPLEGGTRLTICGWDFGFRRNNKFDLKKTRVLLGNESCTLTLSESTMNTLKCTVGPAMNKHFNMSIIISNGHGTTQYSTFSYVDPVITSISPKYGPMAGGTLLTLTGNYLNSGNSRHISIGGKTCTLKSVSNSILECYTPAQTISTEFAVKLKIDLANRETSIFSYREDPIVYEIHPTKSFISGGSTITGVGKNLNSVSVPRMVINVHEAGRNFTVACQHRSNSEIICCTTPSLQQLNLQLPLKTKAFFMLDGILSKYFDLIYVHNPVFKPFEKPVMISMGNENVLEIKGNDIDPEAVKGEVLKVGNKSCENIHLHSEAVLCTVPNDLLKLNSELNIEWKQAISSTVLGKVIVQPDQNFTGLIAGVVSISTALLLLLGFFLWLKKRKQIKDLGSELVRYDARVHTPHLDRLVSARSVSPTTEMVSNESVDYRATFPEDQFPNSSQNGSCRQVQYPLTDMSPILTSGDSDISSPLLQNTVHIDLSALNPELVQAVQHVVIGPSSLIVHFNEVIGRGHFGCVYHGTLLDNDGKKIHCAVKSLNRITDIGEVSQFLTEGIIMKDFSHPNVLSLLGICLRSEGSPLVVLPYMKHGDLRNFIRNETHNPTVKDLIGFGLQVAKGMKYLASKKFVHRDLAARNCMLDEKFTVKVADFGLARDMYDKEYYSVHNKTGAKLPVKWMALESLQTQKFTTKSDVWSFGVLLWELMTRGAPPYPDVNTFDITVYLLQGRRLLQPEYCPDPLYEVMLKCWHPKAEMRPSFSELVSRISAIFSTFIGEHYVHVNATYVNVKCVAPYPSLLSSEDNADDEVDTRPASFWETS

B1: Bsab 6 (bispecific antibody, human IgG1, kappa, L234A L235A)
chain 1: AIQLTQSPSSLSASVGDRVTITCRASQDISSALVWYQQKPGKAPKLLIYDASSLESGVPSRFSGSESGTDFTLTISSLQPEDFATYYCQQFNSYPLTFGGGTKVEIKRTVAAPSVFIFPPSDEQLKSGTASVVCLLNNFYPREAKVQWKVDNALQSGNSQESVTEQDSKDSTYSLSSTLTLSKADYEKHKVYACEVTHQGLSSPVTKSFNRGECGGGGSGGGGSGGGGSGGGGSGGGGSGGGGSGGGGSGGGGSQVQLVESGGGVVQPGRSLRLSCAASGFTFSTYGMHWVRQAPGKGLEWVAVIWDDGSYKYYGDSVKGRFTISRDNSKNTLYLQMNSLRAEDTAVYYCARDGITMVRGVMKDYFDYWGQGTLVTVSSASTKGPSVFPLAPSSKSTSGGTAALGCLVKDYFPEPVTVSWNSGALTSGVHTFPAVLQSSGLYSLSSVVTVPSSSLGTQTYICNVNHKPSNTKVDKKV[omitted - human IgG1 Fc with L234A L235A Y349C T366W (EU numbers)]
chain 2: DIVMTQSPDSLAVSLGERATINCKSSESVDSYANSFLHWYQQKPGQPPKLLIYRASTRESGVPDRFSGSGSGTDFTLTISSLQAEDVAVYYCQQSKEDPLTFGGGTKVEIKRTVAAPSVFIFPPSDEQLKSGTASVVCLLNNFYPREAKVQWKVDNALQSGNSQESVTEQDSKDSTYSLSSTLTLSKADYEKHKVYACEVTHQGLSSPVTKSFNRGECGGGGSGGGGSGGGGSGGGGSGGGGSGGGGSGGGGSGGGGSQVQLVQSGAEVKKPGASVKVSCKASGYIFTAYTMHWVRQAPGQGLEWMGWIKPNNGLANYAQKFQGRVTMTRDTSISTAYMELSRLRSDDTAVYYCARSEITTEFDYWGQGTLVTVSSASTKGPSVFPLAPSSKSTSGGTAALGCLVKDYFPEPVTVSWNSGALTSGVHTFPAVLQSSGLYSLSSVVTVPSSSLGTQTYICNVNHKPSNTKVDKKVEPKSCDKTHTCPPCPAPEAAGGPSVFLFPPKPKDTLMISRTPEVTCVVVDVSHEDPEVKFNWYVDGVEVHNAKTKPREEQYNSTYRVVSVLTVLHQDWLNGKEYKCKVSNKALPAPIEKTISKAKGQPREPQVYTLPPCRDELTKNQVSLSCAVKGFYPSDIAVEWESNGQPENNYKTTPPVLDSDGSFFLVSKLTVDKSRWQQGNVFSCSVMHEALHNHYTQKSLSLSPGK
notes: 1+1 scFab knob-in-hole format; also called Basb 6
EC50 (read off the curve) [1]: ~3 nM
EC50 (read off the curve) [2]: ~2 nM

B2: Bsab 81 (bispecific antibody, human IgG1, kappa, L234A L235A)
chain 1: AIQLTQSPESLSASVGDRVTITCRASQDISSALVWYQQKPGKAPKLLIYDASSLESGVPDRFSGSESGTDFTLTISSLQPEDFATYYCQQFNSYPLTFGGGTKVEIKRTVAAPSVFIFPPSDEQLKSGTASVVCLLNNFYPREAKVQWKVDNALQSGNSQESVTEQDSKDSTYSLSSTLTLSKADYEKHKVYACEVTHQGLSSPVTKSFNRGECGGGGSGGGGSGGGGSGGGGSGGGGSGGGGSGGGGSGGGGSQVQLVESGGGVVQPGRSLRLSCAASGFTFSTYGMHWVRQAPGEGLEWVAVIWDDGSYKYYGDSVKGRFTISRDNSKNTLYLQMNSLRAEDTAVYYCARDGITMVRGVMKDYFDYWGQGTLVTVSSASTKGPSVFPLAPSSKSTSGGTAALGCLVKDYFPEPVTVSWNSGALTSGVHTFPAVLQSSGLYSLSSVVTVPSSSLGTQTYICNVNHKPSNTKVDKKV[omitted - human IgG1 Fc with L234A L235A Y349C T366W (EU numbers)]
chain 2: DIVMTQSPDSLAVSLGERATINCKSSESVDSYANSFLHWYQQKPGQPPKLLIYRASTRESGVPDRFSGSGSGTDFTLTISSLQAEDVAVYYCQQSKEDPLTFGGGTKVEIKRTVAAPSVFIFPPSDEQLKSGTASVVCLLNNFYPREAKVQWKVDNALQSGNSQESVTEQDSKDSTYSLSSTLTLSKADYEKHKVYACEVTHQGLSSPVTKSFNRGECGGGGSGGGGSGGGGSGGGGSGGGGSGGGGSGGGGSGGGGSQVQLVQSGAEVKKPGASVKVSCKASGYIFTAYTMHWVRQAPGQGLEWMGWIKPNNGLANYAQKFQGRVTMTRDTSISTAYMELSRLRSDDTAVYYCARSEITTEFDYWGQGTLVTVSSASTKGPSVFPLAPSSKSTSGGTAALGCLVKDYFPEPVTVSWNSGALTSGVHTFPAVLQSSGLYSLSSVVTVPSSSLGTQTYICNVNHKPSNTKVDKKVEPKSCDKTHTCPPCPAPEAAGGPSVFLFPPKPKDTLMISRTPEVTCVVVDVSHEDPEVKFNWYVDGVEVHNAKTKPREEQYNSTYRVVSVLTVLHQDWLNGKEYKCKVSNKALPAPIEKTISKAKGQPREPQVYTLPPCRDELTKNQVSLSCAVKGFYPSDIAVEWESNGQPENNYKTTPPVLDSDGSFFLVSKLTVDKSRWQQGNVFSCSVMHEALHNHYTQKSLSLSPGK
notes: 1+1 scFab knob-in-hole format; also called Basb 81
EC50 (read off the curve) [3]: ~3 nM
EC50 (read off the curve) [1]: ~3 nM

Where two headings read alike, the source gives them in different places.
